Laboratory results: PubChem BioAssay AID1768 (National Center for Advancing Translational Sciences (NCATS), 2009)
Among all 270,000 compounds or so, about 620 (0.23%) were called active. Inconclusive means that the source gave no clear call. Such entries were picked first, then a sample of the others. The call rests on the fitted dose curve; in most records, active means well fitted inhibition curve with a large enough effect in the polarisation, with a control signal flat (not every such curve was filed as active); inconclusive means small, poorly fitted or top-dose-only effect, or effect the other way, or a change in a side signal; inactive means no such curve, though single readings can be large or run the other way; the % refers to the polarisation. Potencies beside an inconclusive call are fits to weak or partial responses and may not hold up. A note “side channel” means that the fit belongs to a control or component signal, not to the main read-out.

Target: Menin (Homo sapiens) (UniProt O00255)
Assay: qHTS Assay for Inhibitors Targeting the Menin-MLL Interaction in MLL Related Leukemias: Competition With Texas Red Labeled MLL-derived Mutant Peptide
Conditions: fluorescence polarization; series mostly up to 61.6 µM
Potency means the concentration at half of the fitted maximal effect; tags describe the fitted curve by direction and shape or compound fluorescence and quenching.

Chain of UniProt O00255 (O00255 whole entry, looked up): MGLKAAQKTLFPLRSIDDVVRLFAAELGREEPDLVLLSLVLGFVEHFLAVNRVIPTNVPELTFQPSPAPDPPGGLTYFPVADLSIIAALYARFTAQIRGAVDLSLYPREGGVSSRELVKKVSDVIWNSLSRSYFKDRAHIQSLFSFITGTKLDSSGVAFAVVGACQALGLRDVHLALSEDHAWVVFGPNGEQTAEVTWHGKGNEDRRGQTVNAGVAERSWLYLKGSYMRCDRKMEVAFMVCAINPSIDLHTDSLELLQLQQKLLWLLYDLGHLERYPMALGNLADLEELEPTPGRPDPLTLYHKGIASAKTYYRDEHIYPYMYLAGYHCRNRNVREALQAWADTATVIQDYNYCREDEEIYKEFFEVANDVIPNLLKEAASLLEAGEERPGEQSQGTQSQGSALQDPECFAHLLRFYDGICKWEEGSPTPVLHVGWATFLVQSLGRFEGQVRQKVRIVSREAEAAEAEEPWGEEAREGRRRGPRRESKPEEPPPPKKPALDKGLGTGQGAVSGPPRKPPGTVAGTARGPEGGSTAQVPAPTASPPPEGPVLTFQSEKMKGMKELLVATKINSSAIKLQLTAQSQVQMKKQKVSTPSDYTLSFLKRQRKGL

Potency, inactive:
CC(=O)Nc1ccc(S(=O)(=O)Nc2ccc(Cc3ccncc3)cc2)cc1
CCOc1ccc2nc3c(cc2c1)CN(CCOC)C(=NC)S3
COc1ccc(-c2nc3ccccc3nc2-c2ccccc2)cc1
COc1ccc(CCc2nnc(CCC(=O)N(C)Cc3ccncc3C)o2)cc1

Potency, inconclusive:
COc1ccc(CCN2C(=O)c3ccccc3NC2c2cc(Cl)c(O)c(OC)c2)cc1 (stereo not drawn) 15.8 µM [quencher, side channel, partial curve]
C/C(=N/Nc1ccccc1C(=O)O)c1cccs1 31.6 µM [quencher, side channel, partial curve]
O=C(C1=NN(c2ccccc2)C2C(=O)N(c3ccccc3)C(=O)C12)c1ccccc1 (stereo not drawn) 3.16 µM [inhibitor, full curve]
CCc1cc(CC)c(/C=N/NC(N)=O)c(CC)c1 39.8 µM [fluorescent, side channel, single point]
COc1cc(N=c2ssnc2Cl)c(OC)cc1Cl 31.6 µM [quencher, side channel, single point]
CCOc1ccc(NCCC(O)c2ccc(F)cc2)cc1 (stereo not drawn) 3.55 µM [inhibitor, full curve]
C=CCc1cc(Cl)ccc1OCCN1CC(C)OC(C)C1 (stereo not drawn) 28.2 µM [inhibitor, single point]
C/C(=C\c1cccc(Cl)c1)C(=O)c1c(C)cc(C)[nH]c1=O 22.4 µM [inhibitor, partial curve, poor fit]
CCOc1c(OC)cccc1C(=O)NCC1(c2ccccc2)CCCC1 7.94 µM [fluorescent, side channel, partial curve]
CCOc1cc2c3c(c1)C(C)CC(C)(C)N3C(=O)C2=O (stereo not drawn) 3.98 µM [inhibitor, partial curve]
CC(C)c1ccc(-n2cnn(-c3ncccc3[N+](=O)[O-])c2=O)cc1 22.4 µM [quencher, side channel, single point]
COc1ccc(CCNc2cc(C)[nH]c(=O)c2)cc1OC 0.708 µM [inhibitor, full curve, poor fit]
O=C(Nn1cnnc1)c1ccccc1Cl 10 µM [inhibitor, full curve, poor fit]
COc1ccccc1Nc1nc(-c2cccs2)cs1 25.1 µM [quencher, partial curve]
Cc1cccc(-c2nnn(Cc3nnc(NC(=O)c4ccccc4)s3)n2)c1 11.2 µM [inhibitor, partial curve, poor fit]
CC(C)OC(=O)c1nn2c(C(F)(F)F)cc(-c3ccc(Br)o3)nc2c1Br 28.2 µM [quencher, side channel, single point]
COc1cc2c(cc1OC)C1O[C@](c3ccsc3)(C2)Oc2cc(-c3ccccc3)oc(=O)c21 3.55 µM [quencher, side channel, single point]
NCCNCCN 39.8 µM [quencher, side channel, single point]
O=C(Cc1cccs1)N(Cc1ccco1)C1(C(=O)NC2CCCCC2)CCCCC1 6.31 µM [fluorescent, side channel, full curve]
CN(c1ccccc1)S(=O)(=O)c1ccc(NC(=O)c2ccccc2)cc1 15.8 µM [quencher, side channel, partial curve]
O=C1NC(=S)N/C1=C/c1cccn1-c1ccc([N+](=O)[O-])cc1 25.1 µM [quencher, side channel, partial curve]
COc1c(C)cc(C(=O)C2CCCN(C(=O)c3cccc(F)c3)C2)cc1C (stereo not drawn) 15.8 µM [fluorescent, side channel, partial curve]
Nc1ncnc2c1c(-c1ccc(Oc3ccccc3)cc1)cn2C1CCCC1 14.1 µM [fluorescent, side channel, partial curve]
CC(C)C1=C2OC(N)=C(C#N)C(C#N)=C2C(C)CC1 (stereo not drawn) 0.708 µM [inhibitor, full curve]
COc1ccc(-c2ccc(=O)n(Cc3c(F)cccc3Cl)n2)cc1 17.8 µM [fluorescent, side channel, partial curve]
O=C(/C=C/c1ccco1)N1CCC(Cc2ccccc2)CC1 14.1 µM [fluorescent, side channel, partial curve]
COc1ccc(S(=O)(=O)C(C#N)c2nc3ccccc3nc2N2CCC(C)CC2)cc1 (stereo not drawn) 28.2 µM [quencher, side channel, single point]
CCOC(=O)c1c(C)[nH]c(C)c1C(=O)COC(=O)c1cc2ccccc2cc1O 22.4 µM [quencher, side channel, single point]
NCCCCNS(=O)(=O)c1cccc2c(Cl)cccc12 17.8 µM [fluorescent, side channel, partial curve]
Cc1ccc(C(=O)N/C(=C\c2ccc(-c3ccc([N+](=O)[O-])cc3)o2)C(=O)NC2CCS(=O)(=O)C2)cc1 (stereo not drawn) 12.6 µM [quencher, side channel, partial curve]
O=c1c2c(nc3nc(COc4ccccc4)[nH]n13)CCC2 4.47 µM [inhibitor, single point]
COc1ccc(/C=N/NC2=NS(=O)(=O)c3ccccc32)cc1OC(C)=O 39.8 µM [inhibitor, single point]
CCc1cccc2c(C(=O)COC(=O)/C=C/c3ccc(O)c(OC)c3)c[nH]c12 12.6 µM [quencher, side channel, partial curve]
CC(C)c1ccc(C2CC(=O)N3CN(C)CSC3=C2C#N)cc1 (stereo not drawn) 39.8 µM [quencher, side channel, single point]
